Laboratory results from the supplement of paper PMC10433866.
Growth of 20 clonally related Candida (Clavispora) lusitaniae isolates in two-fold drug steps (micafungin 0.016-8, fluconazole 0.5-256 µg/mL; YPAD, 30 °C, 24 h), OD600 as a fraction of the no-drug well; lower = more inhibition. The paper reads the MIC at the lowest dose that inhibits growth by half or more; no call per well. Isolates are numbered anew; coding changes are against their shared background.

Tests used:
Test in all cases: growth relative to the no-drug well (fraction of no-drug control); higher = more growth, less inhibition; Broth microdilution in YPAD with 1% dextrose at 30 °C; OD600 at 24 h as a fraction of the no-drug well, three assays.
[1] = system: Candida lusitaniae isolate 12 (coding changes: none)
[2] = system: Candida lusitaniae isolate 18 (coding changes: none)
[3] = system: Candida lusitaniae isolate 2 (coding changes: none)
[4] = system: Candida lusitaniae isolate 19 (coding changes: none)
[5] = system: Candida lusitaniae isolate 15 (coding changes: none)
[6] = system: Candida lusitaniae isolate 3 (coding changes: FKS1 L1355S / SYG1 E386K)
[7] = system: Candida lusitaniae isolate 8 (coding changes: FKS1 L1355S)
[8] = system: Candida lusitaniae isolate 14 (coding changes: FKS1 R1352C)
[9] = system: Candida lusitaniae isolate 5 (coding changes: FKS1 L1355S)
[10] = system: Candida lusitaniae isolate 11 (coding changes: FKS1 L685F / RLM1 N181K / SIP3 D333E / RPL8B A161V)

CCCCCOc1ccc(-c2cc(-c3ccc(C(=O)N[C@H]4C[C@@H](O)[C@@H](O)NC(=O)[C@@H]5[C@@H](O)[C@@H](C)CN5C(=O)[C@H]([C@H](O)CC(N)=O)NC(=O)[C@H]([C@H](O)[C@@H](O)c5ccc(O)c(OS(=O)(=O)O)c5)NC(=O)[C@@H]5C[C@@H](O)CN5C(=O)[C@H]([C@@H](C)O)NC4=O)cc3)no2)cc1 [micafungin]
growth
Conditions	[1]	[2]	[3]	[4]	[5]	[6]	[7]	[8]	[9]	[10]
0.016 µg/mL	0.00614	0.00305	0.00392	0.00638	0.00332	0.874	0.892	0.795	0.836	1.02
0.031 µg/mL	0.00477	0.00157	0.00313	0.00457	0.00503	0.483	0.544	0.675	0.407	0.867
0.063 µg/mL	0.00362	0.000493	0.00235	0.00182	0.00506	0.227	0.239	0.347	0.234	1.08
0.125 µg/mL	0.00253	0.00117	0.00313	0.00255	0.00478	0.0501	0.075	0.114	0.0673	1.01
0.25 µg/mL	0.00108	0.00212	0.00132	0.00156	0.0027	0.0124	0.0164	0.0285	0.0116	0.781
0.5 µg/mL	0.00512	0.00169	0.00597	0.00353	0.00659	0.00922	0.0173	0.0115	0.00962	0.934
1 µg/mL	-0.00114	0.00102	-1.76e-05	-0.000833	0.001	0.0107	0.00948	0.00766	0.00774	0.17
2 µg/mL	0.000716	0.000617	0.00183	0.00075	0.00152	0.00295	0.00603	0.006	0.00536	0.0899
4 µg/mL	0.000689	0.00157	0.0013	0.000759	0.00177	0.00493	0.0162	0.00434	0.00541	0.0621
8 µg/mL	0.000689	0.00157	0.0013	0.000759	0.00177	0.00444	0.00586	0.00438	0.00826	0.0468

OC(Cn1cncn1)(Cn1cncn1)c1ccc(F)cc1F [fluconazole]
growth
Conditions	[1]	[2]	[3]	[4]	[5]	[6]	[7]	[8]	[9]	[10]
0.5 µg/mL	0.0558	0.134	0.0566	0.0547	0.0642	0.05	0.0528	0.0567	0.0715	0.0511
1 µg/mL	0.0447	0.0728	0.0428	0.0434	0.0494	0.0459	0.0378	0.0385	0.0467	0.0331
2 µg/mL	0.0503	0.0477	0.0438	0.0439	0.0417	0.04	0.0368	0.0379	0.0411	0.0336
4 µg/mL	0.0441	0.0309	0.0436	0.0397	0.0385	0.0365	0.0284	0.0346	0.0356	0.0301
8 µg/mL	0.0456	0.0296	0.0428	0.0407	0.0359	0.0384	0.0326	0.0271	0.0563	0.0277
16 µg/mL	0.0476	0.0322	0.0478	0.0405	0.0369	0.0366	0.0321	0.0264	0.0386	0.0252
32 µg/mL	0.0339	0.0291	0.0316	0.0296	0.0338	0.0347	0.0297	0.0193	0.0384	0.0272
64 µg/mL	0.0413	0.0258	0.0407	0.0406	0.0317	0.0301	0.02	0.014	0.0363	0.0215
128 µg/mL	0.0287	0.0233	0.0253	0.0283	0.0203	0.0243	0.0222	0.0118	0.0287	0.0212
256 µg/mL	0.0127	0.00923	0.00897	0.00787	0.0113	0.00907	0.0101	0.0109	0.0117	0.00904
